# Data published in PubChem BioAssay AID1347417 (National Center for Advancing Translational Sciences (NCATS), 2020).
# The whole screen tested about 120,000 compounds, of which about 5,300 (4.4%) were called active. Inconclusive results, whose numbers are uncertain, are shown with a selection of clear calls. Calls come from the whole dose curve; as a rule, active = well fitted inhibition curve with a large enough effect; inconclusive = small, poorly fitted or top-dose-only effect; inactive = no such curve, though single readings can be large or run the other way. A potency beside an inconclusive call is a rough fit, not a confirmed value.
# Assay: qHTS Primary assay for Inhibitors of Plasmodium falciparum Dd2 growth in vitro; note: nearly all actives have a fitted effect of over 65% in size
# Conditions: P. falciparum Dd2 growth, SYBR Green, 72 h; series mostly up to 28.9 µM
# Method in brief: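 Readout: SYBR Green fluorescence, 485 nm excitation, 535 nm emission, after ~16 h lysis at 37C. Before that, Dd2-infected red cells (2.5% hematocrit) grew 72 h with compound, 29 uM top final concentration.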
# Potency is the fitted concentration of half-maximal effect; tags give direction and shape of the fitted curve.
row,Structure (SMILES),Potency
1,COc1ccc(OC)c(-c2noc(N3CCN(c4cc(C)ccc4C)CC3)n2)c1,"inconclusive: 11.2 µM [inhibitor, single point]"
2,CNc1cc(C(=O)N[C@H](c2cccs2)C2CC(O)C2)ccn1 (stereo partly drawn),inactive
3,COc1ccc(-c2noc([C@@H]3Cc4nc[nH]c4CN3C(=O)NC3CCCCC3)n2)cc1,active: 12.6 µM
4,COc1ccc(OC)c(CCNC(=O)Cn2ccc3cc(S(=O)(=O)N4CCCCC4)ccc32)c1,"inconclusive: 5.01 µM [inhibitor, partial curve, poor fit]"
5,Cc1ccc(C(=O)NCCc2noc(C3CC3)n2)cc1C,"inconclusive: 0.316 µM [inhibitor, full curve, poor fit]"
6,CC1=C[C@@H](CN2CCC(CO)CC2)[C@H](C(C)C)C[C@H]1Cc1nnc(-c2cccnc2)o1,"inconclusive: 5.01 µM [inhibitor, partial curve, poor fit]"
7,CC1=C[C@@H](CNC2CCOCC2)[C@H](C(C)C)C[C@H]1Cc1nc2ccccc2n1C,active: 5.01 µM
8,COc1cc(-c2cc3n(C)c(C)c(CCC(=O)NCc4ccccc4)c(=O)n3n2)cc(OC)c1OC,"inconclusive: 10 µM [inhibitor, single point]"
9,Cc1ccc(C(=O)N2CCCCCCN(C)C(=O)[C@@H]3CCC[C@@H]32)s1,inactive
10,CN1Cc2cccn2CC1CNC(=O)Nc1ccccc1 (stereo not drawn),"inconclusive: 17.8 µM [inhibitor, single point]"
11,CCC(C)Oc1ccccc1CN1CCC(CO)(CN2CCCC2)CC1 (stereo not drawn),"inconclusive: 0.398 µM [inhibitor, full curve, poor fit]"
12,CC(C)c1noc(-c2cn(C3CCN(C(=O)c4ccc(C(C)(C)C)cc4)C3)nn2)n1 (stereo not drawn),inactive
13,CCn1ccc(C(=O)N2CCC3(CC2)c2nccn2-c2ccccc2CN3CC(C)C)n1,"inconclusive: 3.98 µM [inhibitor, single point]"
14,CCOc1ccc(CNC(=O)Cn2ccc3cc(S(=O)(=O)N4CCCCCC4)ccc32)cc1,"inconclusive: 1.41 µM [inhibitor, single point]"
15,O=C(Nc1ccc(F)cc1F)c1ccc2c(c1)CCN2S(=O)(=O)c1ccc(Cl)cc1,"inconclusive: 17.8 µM [inhibitor, single point]"
16,Cc1ncoc1C(=O)N1CC[C@H](CO)[C@H](N(C)C)C1,"inconclusive: 3.98 µM [inhibitor, single point]"
17,O=C(c1ccc2[nH]ccc2c1)N1CCC(N2C(=O)C3(CCCCC3)C2c2ccncc2)CC1 (stereo not drawn),"inconclusive: 5.01 µM [inhibitor, partial curve, poor fit]"
18,CC[C@H]1CN2CC[C@H]1C[C@@H]2COC(=O)Nc1cccc2ccccc12,"inconclusive: 2.51 µM [inhibitor, partial curve, poor fit]"
19,C#CCN(CC=C)Cc1cnc(S(=O)(=O)CC)n1CCCc1ccccc1,inactive
20,O=C(NC1CCN(Cc2ccccc2)CC1)C1(CCO)CCN(c2ncccn2)C1 (stereo not drawn),inactive
21,Cc1ccc(-n2ncc(C(=O)NCc3ccccn3)c2C2CCN(C(=O)OC(C)(C)C)CC2)c(C)c1,inactive

row,Structure (SMILES),Potency
1,COc1ccc(CNC(=O)CCCn2c(=O)c3cccn3c3ccc(F)cc32)cc1OC,"inconclusive: 0.794 µM [inhibitor, full curve]"
2,O=C(Nc1ccc(Cl)c(C(F)(F)F)c1)c1ccc2c(c1)CCN2S(=O)(=O)c1ccccc1,active: 8.91 µM
3,Cc1ccccc1Cn1nnc2c(=O)[nH]c(C3CCN(C(=O)c4ccccc4Cl)CC3)nc21,"inconclusive: 10 µM [inhibitor, single point]"
4,O=C(Cc1cccc(Cl)c1)N1CCn2c(nn(-c3ccc(F)cc3)c2=O)C1,inactive
5,Cc1ccc(CNc2ncnc3c2c(-c2ccccc2)cn3-c2ccccc2)cc1,"inconclusive: 17.8 µM [inhibitor, single point]"
6,CC1CCC(NC(=O)c2cc3n(n2)CC(c2ccc4c(c2)OCO4)OC3)CC1 (stereo not drawn),inactive
7,CCS(=O)(=O)N(C1CC1)C1CCOC2(CCN(C(=O)c3ccc(OC)cc3)CC2)C1 (stereo not drawn),"inconclusive: 4.47 µM [inhibitor, partial curve, poor fit]"
8,COc1ccccc1CN1CCn2c(nn(-c3ccc([N+](=O)[O-])cc3)c2=O)C1,"inconclusive: 1.58 µM [inhibitor, full curve, poor fit]"
9,COC(=O)c1ccc2c(c1)nc1n2[C@@H](CNCc2ccc(F)c(F)c2)COC1,"inconclusive: 12.6 µM [inhibitor, partial curve, poor fit]"
10,CCNC(=O)c1n[nH]c2c1CN(C(=O)c1ccccc1F)CC2,inactive
11,Cc1cnc(NC(=O)c2ccc3c(c2)OCCN(c2ccccc2)C3)s1,"inconclusive: 7.08 µM [inhibitor, partial curve, poor fit]"
12,CN(C)c1ccc(C(CNC(=O)c2cccc(C(F)(F)F)c2)N2CCCC2)cc1 (stereo not drawn),"inconclusive: 11.2 µM [inhibitor, single point]"
13,CCCSc1nc(-c2ccc(OC)cc2)cc(-c2ccccc2OC)c1C#N,"inconclusive: 17.8 µM [inhibitor, single point]"
14,c1ccc(CN(Cc2nc(-c3ccccn3)no2)CC2CC2)cc1,"inconclusive: 20 µM [inhibitor, single point]"
15,CC(C)CC1=NS(=O)(=O)c2cc(NC(=O)C3CCC3)ccc2N1c1ccccc1,"inconclusive: 6.31 µM [inhibitor, partial curve, poor fit]"
16,Cc1ccc(-c2cc3c(=O)n(CCNC(=O)c4ccc[nH]c4=O)ccn3n2)cc1C,"inconclusive: 0.708 µM [inhibitor, full curve, poor fit]"
17,O=C(c1ccccc1)c1cn(Cc2ccc(F)cc2)c2ccccc2c1=O,"inconclusive: 14.1 µM [inhibitor, single point]"
18,CCOC(=O)N1CCC(N(C)CC2CCN(CCc3ccc(F)cc3)CC2)CC1,"inconclusive: 17.8 µM [inhibitor, single point]"
19,Cc1cc(=O)n(CC(=O)NCCCc2ccccc2)c(N2CCc3ccccc3C2)n1,"inconclusive: 5.01 µM [inhibitor, partial curve, poor fit]"
20,O=C(NCc1cccnc1)[C@H]1CN2CCC1C[C@@H]2Cn1cc(-c2ccc(-c3ccccc3)cc2)nn1 (stereo partly drawn),"inconclusive: 11.2 µM [inhibitor, single point]"
21,CSc1ncc(C(=O)N2CCC(c3nccn3CCN(C)C)CC2)cn1,inactive

row,Structure (SMILES),Potency
1,CC(C)C[C@@H]1N[C@H](C(=O)N2CCCC2)Cc2cn(Cc3ccccn3)c3cccc1c23,"inconclusive: 1.58 µM [inhibitor, partial curve, poor fit]"
2,CCN1CCN(CCCNC(=O)c2cnn(-c3ccccc3Cl)c2C2CCN(C(=O)OC(C)(C)C)CC2)CC1,"inconclusive: 8.91 µM [inhibitor, partial curve, poor fit]"
3,CCOC(=O)C1CCCN(c2c(C(=O)c3ccc(OCC)cc3)cnc3ccccc23)C1 (stereo not drawn),inactive
4,CC(C)CN(CCCNC(=O)c1cc(-c2cccs2)nc2ccccc12)CC(C)C,"inconclusive: 11.2 µM [inhibitor, single point]"
5,Cc1nn(C)c2c1c(-c1ccccc1)cc(=O)n2Cc1ccccc1C#N,"inconclusive: 10 µM [inhibitor, single point]"
6,Cc1noc(-c2cccs2)c1C(=O)NCc1ccco1,"inconclusive: 8.91 µM [inhibitor, partial curve, poor fit]"
7,Cc1cc(N2CCN(Cc3cc4n(n3)CCNC4)CC2)n2ncnc2n1,inactive
8,Cc1noc(-c2ccc(C(C)(C)C)cc2)c1C(=O)NCc1cc(F)cc(F)c1,active: 10 µM
9,COc1ccccc1Nc1ncc2c(n1)CN(C(=O)c1cccc(N(C)C)c1)CCN2,"inconclusive: 10 µM [inhibitor, partial curve]"
10,COc1ccc(N2CC(C(=O)NCCc3ccc(Cl)cc3)NC2=O)cc1 (stereo not drawn),inactive
11,COc1ccc(-c2nc(C3CC3)nc3c2CCN(Cc2cccc4ccccc24)CC3)cc1,"inconclusive: 12.6 µM [inhibitor, single point]"
12,Cc1ccsc1CNC(=O)c1cccc(C#CC(C)(C)O)c1,"inconclusive: 20 µM [inhibitor, single point]"
13,COc1ccc(Cl)cc1NC(=O)Cn1c(=O)c(-c2noc(C)n2)c2n(c1=O)CCCC2,inactive
14,CC(C)(C)c1cc(CC2(NCc3ccccc3O)COC2)no1,inactive
15,COc1ccc(S(=O)(=O)N[C@H]2C[C@@H](c3nc(-c4ccc(C)cc4)no3)N(C)C2)cc1,inactive
16,COc1ccc(NC(=O)O[C@@H]2CO[C@H]3[C@@H]2OC[C@@H]3NS(=O)(=O)c2cccc3cccnc23)cc1,"inconclusive: 14.1 µM [inhibitor, partial curve, poor fit]"
17,COCCCn1c(=N)c(C(=O)NCc2cccnc2)cc2c(=O)n3cccc(C)c3nc21,"inconclusive: 10 µM [inhibitor, single point]"
18,O=C(Cc1ccc(F)cc1)N1CCC2(C1)C(=O)N(CCc1ccccc1)c1ccccc12 (stereo not drawn),"inconclusive: 8.91 µM [inhibitor, partial curve, poor fit]"
19,CNc1ccc(C)cc1C(=O)NC(C(=O)O)c1c(C)n[nH]c1C (stereo not drawn),inactive
20,Cc1cccc(CNC(=O)c2cc3c(=O)[nH]c(C)cn3n2)c1,"inconclusive: 3.98 µM [inhibitor, full curve, poor fit]"
21,COc1ccc(NC(=O)c2c(NCc3cccs3)sc3c2CCCC3)c(OC)c1,"inconclusive: 17.8 µM [inhibitor, single point]"
